Consider 42 molecules from ChEMBL document CHEMBL4888484, “Replenishing the malaria drug discovery pipeline: Screening and hit evaluation of the MMV Hit Generation Library 1 (HGL1) against asexual blood stage Plasmodium falciparum ,using a nano luciferase reporter read-out” (2022).

The campaign covered roughly 150,000 compounds. About 540 (0.36%) showed an effect of 50% or more. Some of the results follow.

This assay relates to Plasmodium falciparum. The assay can be described thus: Primary screen in NF54 nanoGlo assay, in single point, at 2uM, 72h; a lower Z score goes with more inhibition. In kind it is functional, Erythrocyte. Particulars: timepoint 72 hour.
On to `Cc1n[nH]cc1Nc1nc(C(C)(C)C)ns1`, for which the % Inhibition (as a rule, the change of the read-out against control, counted positive when it falls) was 3% and the Z score is on record as -0.46.
For the molecule `Cc1n[nH]c(C)c1CNCc1ccc(-c2ccn(Cc3c(C)noc3C)n2)o1`, the “% Inhibition” value is on record as -19% and the Z score was 2.28.
As to `CC1CCCC(NC(=O)CS(=O)(=O)N2CCN(C)CC2)C1C` (centres undefined), the “% Inhibition” value is reported as -10% and the Z score stood at 1.99.
The like results for `O=C(c1cc2ccccc2s1)N1C2CCC1CC(n1ccnn1)C2` (centres undefined) were, in that order, -8% and 1.24.
`Cc1ccc(S(=O)(=O)N2CCC3(CC2)NC(=O)c2ccccc2N3)cc1Cl`: the “% Inhibition” value is recorded as -8% and the Z score came to 0.83.
Turning to `O=C(CCCn1nc(-c2ccccc2)c2ccccc21)N1CCc2ccccc2C1`, the “% Inhibition” value was -5% and the Z score is recorded as 0.86.
Regarding `COc1c[nH]c(C(=O)N2CCC(F)CC2)cc1=O`, the “% Inhibition” value is -5% and the Z score is 0.59.
For the molecule `Oc1ccc2c(c1)Oc1ncn3nc(COc4ccc(Cl)cc4)nc3c1[C@H]2c1ccccc1`, the “% Inhibition” value is -7% and the Z score is 0.73.
For `COc1cc(-c2nc(Cn3ccnc3)no2)cc(OC)c1OC`, the “% Inhibition” value was -3% and the Z score is on record as 0.63.
`CC(=O)N1CCc2cc(NCc3c[nH]c4ccccc34)ccc21`: the “% Inhibition” value is 5% and the Z score is given as -0.77.
Turning to `Cc1cc(C)nc(-n2cc(C(=O)N3CCC=C(F)C3)c(C(C)C)n2)n1`, the “% Inhibition” value is reported as -4% and the Z score is 0.86.
On to `CC(C)CNC(=O)[C@@H]1CCN(S(C)(=O)=O)c2cc(Cl)ccc2O1`, for which the “% Inhibition” value is listed as 8% and the Z score is -1.31.
For `COc1cccc(OC[C@@H](O)CNc2nncc(-c3cccc(OC)c3)n2)c1`, the “% Inhibition” value is reported as -3% and the Z score is given as 0.34.
The like results for `CC(C(=O)NC1CCCCC1)N1CCCC(c2cc(C(N)=O)[nH]n2)C1` (centres undefined) were, in that order, -10% and 1.4.
`Cc1ccc(F)cc1C(=O)N1CCC2(CCC(=O)N(C3CC3)C2)CC1`: the “% Inhibition” value is on record as -7% and the Z score was found to be 0.84.
On to `O=C1NCCN(Cc2cccc(F)c2F)[C@H]1CC(=O)N1CCC(O)(c2ccccn2)CC1`, for which the “% Inhibition” value was -15% and the Z score was 1.75.
For `CC(=O)N1C[C@H](O)C[C@@H]1c1nc(-c2cc3ccccc3o2)no1`, the “% Inhibition” value is on record as -2% and the Z score worked out at 0.34.
The like results for `Cn1nc2c(c1CNC(=O)COc1ccc(Cl)cc1)CCC2` were, in that order, 15% and -1.95.
For `Cc1c(C(=O)NC2CC2)cnn1-c1cc(-c2nc(C3CC3)no2)ccn1`, the “% Inhibition” value is -20% and the Z score was determined as 3.18.
`CC1CN(CCCNC(=O)c2cn[nH]c2)CC(C)O1` (centres undefined): the “% Inhibition” value is reported as -4% and the Z score came out at 0.78.
On to `CCOc1cc(CNc2ncnc3nc[nH]c23)ccn1`, for which the “% Inhibition” value is -4% and the Z score is 0.64.
As for `COc1ccc(CN2CCNC(=O)C23CCCC3)c(F)c1`, the “% Inhibition” value is on record as -12% and the Z score was found to be 1.76.
On to `OCc1cn(CCc2ccccn2)nn1`, for which the “% Inhibition” value came to 10% and the Z score is reported as -1.29.
As to `O=C(C[C@H]1COc2ccccc2NC1=O)Nc1ccc2c(c1)OCCO2`, the “% Inhibition” value is on record as -6% and the Z score amounted to 0.66.
The matching figures for `CC(OCC1CCCO1)C(=O)NC1CCc2cn[nH]c2C1` (centres undefined): -6% and 0.64.
For the molecule `Cc1nc(CNC(=O)NCCOc2ccc(F)cc2F)sc1C`, the “% Inhibition” value was -14% and the Z score came out at 1.46.
With `COCCNC(=O)[C@H](C)N(c1nc(-c2ccc(C)cc2)cs1)c1ccccc1Cl`, the “% Inhibition” value is on record as -15% and the Z score is on record as 2.88.
The matching figures for `CC(C)NC(=O)C[C@@H]1O[C@H](CNC(=O)Nc2ccccc2)[C@@H](O)[C@H]1O`: 31% and -3.45.
On to `Cc1ccc2c(c1)C1NC(=O)NC(C)(O2)C1C(=O)Nc1ccc(Cl)cc1` (centres undefined), for which the “% Inhibition” value was found to be 36% and the Z score was -4.11.
Take `O=C(C[n+]1cn(NCc2ccco2)cn1)c1ccc(-c2ccccc2)cc1`: the “% Inhibition” value is -10% and the Z score was determined as 1.89.
Consider `C#CCC[C@H](O)CNCc1cccc(Br)c1`, for which the “% Inhibition” value is -7% and the Z score is 0.98.
On to `Cc1ccc(NC(=O)CC(C)(C)CC(=O)O)cc1`, for which the “% Inhibition” value was determined as 0% and the Z score is recorded as -0.02.
Take `COCc1cccc(CC(=O)NCc2c[nH]c(=O)[nH]2)c1`: the “% Inhibition” value is listed as -12% and the Z score worked out at 2.01.
With `CCCOc1nccnc1NC1CCN(C(=O)c2cccs2)CC1`, the “% Inhibition” value was 2% and the Z score is recorded as -0.35.
Take `Cn1ncc(C2CCC2)c1C(=O)NCCc1ncn[nH]1`: the “% Inhibition” value was 4% and the Z score is recorded as -0.57.
Regarding `COc1ccccc1CNC(=O)Cn1nc(C(=O)N2CCOCC2)cc1C`, the “% Inhibition” value is given as 0% and the Z score is reported as 0.03.
With `CO[C@H]1CCN(C(=O)Cc2coc(-c3ccc(F)cc3)n2)CC1(C)C`, the “% Inhibition” value is -11% and the Z score amounted to 1.46.
As for `O=C1NCC2(CCN(Cc3c[nH]cn3)CC2)Oc2ccccc21`, the “% Inhibition” value is listed as -5% and the Z score is given as 0.85.
As to `CN(Cc1ccccc1)c1nc2c(c(Oc3cccc(F)c3)n1)CN(C(=O)c1ccc(F)cc1F)CC2`, the “% Inhibition” value worked out at 0% and the Z score was 0.05.
The matching figures for `NS(=O)(=O)c1cccc(NC(=O)CCCCc2nc3ccccc3s2)c1`: -21% and 3.03.
As to `CC(=O)N[C@H]1C[C@@H](c2cc(C)c(C)cc2C)O[C@@H](c2cccc(O)c2)C1`, the “% Inhibition” value is recorded as -7% and the Z score is given as 1.12.
The matching figures for `Cc1c(NC(=O)N2CCCCC2)c(=O)n(-c2ccccc2)n1C`: -8% and 1.45.
